Assay results published in the supplement of paper PMC4604168 (melanoma cell lines).
The other results are listed elsewhere or left out. Many values rest on one well or one pass, so single values are uncertain.

Legend:
Experiment in all cases: cell count relative to DMSO control; melanoma cells; higher = more viable cells
Conditions in all cases: library dose: low library concentration; 72 h
COLO792 = system: COLO792
COLO800 = system: COLO800
COLO829 = system: COLO829
G361 = system: G361
IPC-298 = system: IPC-298
IST-MEL1 = system: IST-MEL1
LB2518-MEL = system: LB2518-MEL
LOXIMVI = system: LOXIMVI
MEL-HO = system: MEL-HO
MZ2-MEL = system: MZ2-MEL
MeWo = system: MeWo
RPMI7951 = system: RPMI7951
RVH-421 = system: RVH-421
SkMel28 = system: SkMel28
SkMel2 = system: SkMel2
SkMel30 = system: SkMel30
SkMel5 = system: SkMel5
UACC257 = system: UACC257
UACC62 = system: UACC62
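Also: cell number obtained by counting DAPI-stained nuclei in high-throughput microscope images with image analysis software, screen run in 1,536-well plates.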

Structure (SMILES)	cell count (COLO792)	cell count (COLO800)	cell count (COLO829)	cell count (G361)	cell count (IPC-298)	cell count (IST-MEL1)	cell count (LB2518-MEL)	cell count (LOXIMVI)	cell count (MEL-HO)	cell count (MZ2-MEL)	cell count (MeWo)	cell count (RPMI7951)	cell count (RVH-421)	cell count (SkMel28)	cell count (SkMel2)	cell count (SkMel30)	cell count (SkMel5)	cell count (UACC257)	cell count (UACC62)
CO[C@@H]1[C@H](N(C)C(=O)c2ccccc2)C[C@H]2O[C@]1(C)n1c3ccccc3c3c4c(c5c6ccccc6n2c5c31)C(=O)NC4 [Midostaurin] + CN(C)S(=O)(=O)c1ccc2c(c1)/C(=C/c1cc3c([nH]1)CCCC3)C(=O)N2 [SU6656] (first compound 0.08 µM, partner dose 0.4 µM)	92.1%	119%	109%	92%	91.5%	96.2%	89.8%	64.7%	103%	101%	77.3%	96.6%	82.8%	82.5%	85.3%	79.4%	82.9%	89.9%	80.5%
C[C@]1(c2nc3c(C(N)=O)cccc3[nH]2)CCCN1 [Veliparib] + O=C(O)c1ccc(-c2c[nH]c3ncc(-c4ccccc4)cc23)cc1C1CCCC1 [GSK650394] (first compound 1.4 µM, partner dose 0.16 µM)	94.6%	95.4%	79.7%	92.9%	92.3%	85.7%	84.8%	70%	89.5%	90.8%	80.3%	94.6%	90.7%	85.8%	84.7%	74.5%	90.2%	95.4%	94.3%
C=CCn1c(=O)c2cnc(Nc3ccc(N4CCN(C)CC4)cc3)nc2n1-c1cccc(C(C)(C)O)n1 + NC(=O)Nc1cc(-c2cccc(F)c2)sc1C(=O)N[C@H]1CCCNC1 [AZD7762] (first compound 0.02 µM, partner dose 0.02 µM)	86%	91.6%	103%	107%	105%	102%	88%	69.2%	103%	113%	76.5%	54.4%	101%	82.8%	93.5%	62.3%	95.6%	110%	69%
Cc1nc(Nc2ncc(C(=O)Nc3c(C)cccc3Cl)s2)cc(N2CCN(CCO)CC2)n1 [dasatanib] + OCCn1cc(-c2cnc3nnn(Cc4ccc5ncccc5c4)c3n2)cn1 [PF04217903] (first compound 0.004 µM, partner dose 1 µM)	60.7%	92%	59%	100%	115%	85%	91.5%	46%	76.5%	88.4%	86.4%	89.3%	82.9%	68.3%	104%	110%	96.5%	75.3%	90.5%
NC(=O)Nc1cc(-c2cccc(F)c2)sc1C(=O)N[C@H]1CCCNC1 + Cn1cncc1[C@@](N)(c1ccc(Cl)cc1)c1ccc2c(c1)c(-c1cccc(Cl)c1)cc(=O)n2C [tipifarnib] (first compound 0.02 µM, partner dose 0.01 µM)	97.4%	82.9%	87.7%	85.9%	108%	106%	94.9%	102%	92.1%	104%	102%	81%	101%	111%	91.1%	87.9%	101%	106%	81.9%
C=CCn1c(=O)c2cnc(Nc3ccc(N4CCN(C)CC4)cc3)nc2n1-c1cccc(C(C)(C)O)n1 + CO[C@@H]1[C@H](N(C)C(=O)c2ccccc2)C[C@H]2O[C@]1(C)n1c3ccccc3c3c4c(c5c6ccccc6n2c5c31)C(=O)NC4 [Midostaurin] (first compound 0.02 µM, partner dose 0.08 µM)	76.2%	60.5%	79%	78.7%	93.5%	84.9%	81.4%	56.3%	90.8%	91.8%	78.9%	70.2%	78.6%	102%	71.9%	76.5%	101%	98.6%	88.5%
C[C@]1(c2nc3c(C(N)=O)cccc3[nH]2)CCCN1 [Veliparib] + Cc1ccc(NC(=O)c2cccc(N(C)C)c2)cc1NC(=O)c1ccc(O)cc1 [ZM336372] (first compound 1.4 µM, partner dose 2 µM)	99.1%	116%	73.7%	104%	84.7%	91.1%	86%	130%	119%	78.1%	94.2%	76.6%	86.7%	93.2%	99.3%	93.2%	96.2%	78.9%	85.9%
C=CCn1c(=O)c2cnc(Nc3ccc(N4CCN(C)CC4)cc3)nc2n1-c1cccc(C(C)(C)O)n1 + CN(NC(=O)CC(=O)NN(C)C(=S)c1ccccc1)C(=S)c1ccccc1 [STA4783] (first compound 0.02 µM, partner dose 0.006 µM)	70.7%	32.7%	51.6%	90.6%	97.2%	80.2%	–	66.2%	107%	–	97.4%	77.3%	82%	97.6%	102%	117%	87.8%	100%	81.9%
C=CCn1c(=O)c2cnc(Nc3ccc(N4CCN(C)CC4)cc3)nc2n1-c1cccc(C(C)(C)O)n1 + OCCn1cc(-c2cnc3nnn(Cc4ccc5ncccc5c4)c3n2)cn1 [PF04217903] (first compound 0.02 µM, partner dose 1 µM)	104%	120%	97.5%	99.4%	99.4%	102%	–	82.6%	90.3%	–	102%	108%	75.7%	96.6%	98%	80.5%	87.1%	112%	89.7%
Cc1nc(Nc2ncc(C(=O)Nc3c(C)cccc3Cl)s2)cc(N2CCN(CCO)CC2)n1 [dasatanib] + O=C(O)c1ccc(-c2c[nH]c3ncc(-c4ccccc4)cc23)cc1C1CCCC1 [GSK650394] (first compound 0.004 µM, partner dose 0.16 µM)	65.9%	107%	76.9%	92.7%	102%	77.8%	102%	32.5%	86.1%	71.9%	85.4%	73.3%	87.7%	78.1%	98.7%	92.1%	96.6%	54.1%	73.4%
Cc1nc(Nc2ncc(C(=O)Nc3c(C)cccc3Cl)s2)cc(N2CCN(CCO)CC2)n1 [dasatanib] + NC(=O)Nc1cc(-c2cccc(F)c2)sc1C(=O)N[C@H]1CCCNC1 [AZD7762] (first compound 0.004 µM, partner dose 0.02 µM)	64.5%	94.9%	78.2%	116%	102%	88.5%	–	62%	84.1%	–	102%	65.7%	97.4%	79.1%	–	96.8%	93.7%	90.3%	98.1%
C[C@]1(c2nc3c(C(N)=O)cccc3[nH]2)CCCN1 [Veliparib] + O=C(Nc1cccc(Cl)c1)Nc1ncc(CCNc2ncnc3ccsc23)s1 [SNS314] (first compound 1.4 µM, partner dose 0.0008 µM)	89.2%	103%	99.2%	94.4%	102%	87.5%	96.8%	67.8%	92.5%	96.2%	96.5%	105%	97.8%	88.3%	93.4%	106%	98.2%	80%	93%
NC(=O)Nc1cc(-c2cccc(F)c2)sc1C(=O)N[C@H]1CCCNC1 + O=C(Nc1cccc(Cl)c1)Nc1ncc(CCNc2ncnc3ccsc23)s1 [SNS314] (first compound 0.02 µM, partner dose 0.0008 µM)	102%	81.4%	82.6%	108%	110%	111%	–	92.3%	102%	–	104%	107%	121%	99.4%	–	136%	101%	97.8%	94.1%
CN(C)S(=O)(=O)c1ccc2c(c1)/C(=C/c1cc3c([nH]1)CCCC3)C(=O)N2 + NCC(=O)Nc1ccc(-n2nc(C(F)(F)F)cc2-c2ccc3c(ccc4ccccc43)c2)cc1 [OSU03012] (first compound 0.4 µM, partner dose 1 µM)	87.8%	102%	73.5%	79.5%	92.6%	85.4%	118%	119%	86.9%	108%	58.2%	95%	84.2%	76.2%	67.7%	50.8%	95.8%	79.5%	80.9%
Cc1nc(Nc2ncc(C(=O)Nc3c(C)cccc3Cl)s2)cc(N2CCN(CCO)CC2)n1 [dasatanib] + Cc1ccc(NC(=O)c2cccc(N(C)C)c2)cc1NC(=O)c1ccc(O)cc1 [ZM336372] (first compound 0.004 µM, partner dose 2 µM)	69.5%	99.2%	94%	99.4%	80.9%	88.8%	91.4%	34.8%	82%	61.4%	93.6%	70.5%	87.4%	77.7%	112%	95.4%	97.6%	91.9%	101%
C=CCn1c(=O)c2cnc(Nc3ccc(N4CCN(C)CC4)cc3)nc2n1-c1cccc(C(C)(C)O)n1 + Cc1ccc(NC(=O)c2cccc(N(C)C)c2)cc1NC(=O)c1ccc(O)cc1 [ZM336372] (first compound 0.02 µM, partner dose 2 µM)	104%	112%	101%	83.1%	84.2%	102%	84.9%	141%	82.6%	90.9%	97.3%	97.4%	98.5%	91.2%	94.9%	79.9%	105%	69.7%	68.6%
C[C@]1(c2nc3c(C(N)=O)cccc3[nH]2)CCCN1 [Veliparib] + COc1cc2c(Oc3ccc4[nH]c(C)cc4c3F)ncnc2cc1OCCCN1CCCC1 [cediranib] (first compound 1.4 µM, partner dose 0.4 µM)	84.2%	78%	118%	88%	98.6%	106%	–	73%	73.5%	–	95.5%	100%	89.2%	90.9%	–	94%	106%	75%	85.2%
Cc1nc(Nc2ncc(C(=O)Nc3c(C)cccc3Cl)s2)cc(N2CCN(CCO)CC2)n1 [dasatanib] + COc1cc2c(Oc3ccc4[nH]c(C)cc4c3F)ncnc2cc1OCCCN1CCCC1 [cediranib] (first compound 0.004 µM, partner dose 0.4 µM)	61.2%	149%	83.7%	88.8%	111%	84.5%	98.7%	76.2%	95%	91.8%	86.6%	58.5%	96.5%	65.8%	100%	107%	72.4%	41.7%	83.6%
NC(=O)Nc1cc(-c2cccc(F)c2)sc1C(=O)N[C@H]1CCCNC1 + CN(NC(=O)CC(=O)NN(C)C(=S)c1ccccc1)C(=S)c1ccccc1 [STA4783] (first compound 0.02 µM, partner dose 0.006 µM)	55.7%	39.2%	79%	80.6%	98.4%	75.2%	68.2%	80.7%	99%	110%	101%	93.6%	82.7%	103%	105%	110%	130%	116%	93.8%
C[C@]1(c2nc3c(C(N)=O)cccc3[nH]2)CCCN1 [Veliparib] + CN(C)S(=O)(=O)c1ccc2c(c1)/C(=C/c1cc3c([nH]1)CCCC3)C(=O)N2 [SU6656] (first compound 1.4 µM, partner dose 0.4 µM)	97.1%	85.4%	80.7%	85.5%	99.3%	97.2%	87%	87.6%	96.3%	103%	92.6%	126%	92.2%	79.6%	96.8%	98.5%	103%	98.3%	87.3%
